Data on 84 variants can be found in the RNAGym collection of RNA variant scans (doi:10.1093/nar/gkz1192).

The chains are these.
B1: CPEB3 Ribozyme (parent)
chain: UAACAGGGGGCCACAGCAGAAGCGUUCACGUCGCAGCCCCUGUCAGAUUCUGGUGAAUCUGCGAAUUCUGCUGUAUAUCUC

Read counts are not given, so values of variants with three or more changes are uncertain.

The variants in this series derive from B1. In words: self-cleavage, relative activity (ratio to wild type); higher = more cleavage; in vitro, sequencing. Put shortly:
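Libraries of CPEB3 self-cleaving ribozyme mutants came from rounds of error-prone PCR and carried barcodes, which DNA sequencing matched to variants. In vitro transcription used T7 RNA polymerase at 37°C for 5 hours, with a further 15 min in DNase I before EDTA stopped the reaction; the ribozymes cleaved during both steps. The RNA was reverse transcribed with template switching and sequenced on Illumina. Relative activity is the cleaved/total read fraction of a variant divided by that of the unmutated ribozyme, averaged over three batches with at least 5 reads.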
For U25C U43A C50U G61A A65G U66C, the self-cleavage was determined as 0.11.

As to U25C G33A A57U U72A, the self-cleavage was 0.08.

Regarding U25C U48C U51C A65U U74A, the self-cleavage was 0.15.

In the case of U25C U26A A47G, the self-cleavage was found to be 0.22.

On to U25C U41A U43C U74A, for which the self-cleavage was determined as 0.06.

Turning to U25C U48C U51C U80C C81U, the self-cleavage stood at 0.3.

In the case of U25C U31C A45G U54C, the self-cleavage was determined as 0.12.

For U25C U49C A57G U76C, the self-cleavage was determined as 0.41.

Regarding U25C U41C A47G U54A A56U A77C, the self-cleavage was 0.12.

As for U25C G52U U74C U80C, the self-cleavage turned out to be 0.13.

Consider U25C U49C A57U C59U U67A, for which the self-cleavage stood at 0.06.

On to U25C C38U A65G, for which the self-cleavage is 0.12.

Take U25C U26A A28U U51C: the self-cleavage is 0.22.

Turning to U25C U26C A56U C62U A77G, the self-cleavage was 0.05.

As to U25C C38U U41C, the self-cleavage worked out at 0.14.

For the variant U25C U31C A35G, the self-cleavage came out at 0.15.

As to U25C U49C A65G, the self-cleavage worked out at 0.13.

In the case of U25C U41C U58A U80C, the self-cleavage was found to be 0.26.

Consider U25C G30A A45U A56G U66C A75G, for which the self-cleavage is 0.39.

As for U25C U48C A57G U72C, the self-cleavage was found to be 0.07.

As to U25C U49A C71A, the self-cleavage stood at 0.17.

For the variant U25C U43G U60A U72G U78C, the self-cleavage worked out at 0.07.

U25C G33U U43G A56U U76C: the self-cleavage is 0.14.

Turning to U25C U31G G36C A45G U49A, the self-cleavage turned out to be 0.17.

Turning to U25C G30C U54C U67A, the self-cleavage is 0.17.

Regarding U25C C40U G61U U69C, the self-cleavage turned out to be 0.07.

For U25C U31C U54C, the self-cleavage turned out to be 0.29.

With U25C C40G C59A U66C, the self-cleavage worked out at 0.07.

For U25C U26C A35G G52A A65G U78C, the self-cleavage is 0.07.

Consider U25C U26C U41A U51A U66C, for which the self-cleavage was 0.15.

Regarding U25C U31A G70U, the self-cleavage worked out at 0.06.

Consider U25C U26C U43C A64G U67C, for which the self-cleavage was determined as 0.11.

For the variant U25C U31C U67A U72A, the self-cleavage was found to be 0.11.

Take U25C U26C U31A U43C A45G A75U: the self-cleavage was found to be 0.14.

For the variant U25C U41C U60C U67G U69C U72C, the self-cleavage came out at 0.39.

U25C C40U A45G U66A U80C: the self-cleavage stood at 0.09.

Consider U25C U31A U51C, for which the self-cleavage is 0.23.

Turning to U25C U31C U78C, the self-cleavage amounted to 0.22.

Take U25C U43C U49C A56U: the self-cleavage amounted to 0.34.

In the case of U25C U31C U48C A57G, the self-cleavage came out at 0.12.

In the case of U25C G36A A47G A56U A57G, the self-cleavage was 0.1.

Consider U25C U43A G52U, for which the self-cleavage worked out at 0.35.

In the case of U25C C50U U58G C62U, the self-cleavage turned out to be 0.07.

With U25C C62U U67C U72A, the self-cleavage amounted to 0.06.

U25C U26A C37A: the self-cleavage came out at 0.21.

In the case of U25C U31A U43A A47U, the self-cleavage was 0.15.

On to U25C U31A U41C G63A U74G, for which the self-cleavage worked out at 0.08.

Turning to U25C C40U U80C, the self-cleavage was determined as 0.21.

Consider U25C U26C A45G U54C, for which the self-cleavage came to 0.09.

As for U25C U41A A64G U78C, the self-cleavage turned out to be 0.15.

For the variant U25C C39U A56U U58A C79A, the self-cleavage is 0.11.

On to U25C U31C A47G U69C, for which the self-cleavage was 0.12.

In the case of U25C C62G U67C, the self-cleavage was found to be 0.15.

U25C U41C U72C: the self-cleavage stood at 0.46.

U25C U48A U49C A64U: the self-cleavage is 0.12.

For the variant U25C G42C A56G U60A, the self-cleavage is 0.13.

Regarding U25C U43C U49C U74A, the self-cleavage is 0.23.

As to U25C C39U A64U A65U G73A U80A, the self-cleavage came out at 0.05.

As for U25C C38U U54A A57G U69C U72C, the self-cleavage stood at 0.15.

For the variant U25C U26C A35G A57G A65G A77C, the self-cleavage turned out to be 0.15.

Consider U25C U26A C62U, for which the self-cleavage is 0.1.

Take U25C U43C U48C C50A: the self-cleavage amounted to 0.37.

Turning to U25C U43C U67C U76C, the self-cleavage turned out to be 0.09.

For the variant U25C C62G U72C, the self-cleavage was 0.14.

U25C C39U A47G U49A U72G A75G: the self-cleavage was 0.02.

Consider U25C U31C U49A U58C U67C, for which the self-cleavage stood at 0.07.

With U25C U31A A35C U43G A65G U72C, the self-cleavage worked out at 0.06.

Consider U25C G30C A56G U60C A64U U74C U80C, for which the self-cleavage worked out at 0.05.

With U25C C39A U72A U74C, the self-cleavage came out at 0.15.

On to U25C U31A U60A, for which the self-cleavage is 0.07.

Consider U25C U31A A56G U72A, for which the self-cleavage worked out at 0.08.

For U25C G30C A47G, the self-cleavage turned out to be 0.14.

In the case of U25C U26C A35U C38A U66C, the self-cleavage was found to be 0.2.

For U25C U49C G52A A64G G70C A75G, the self-cleavage worked out at 0.28.

Take U25C U31C U54C A64G U67C U80C: the self-cleavage was found to be 0.08.

Consider U25C U41C U49A, for which the self-cleavage was determined as 0.45.

On to U25C U43A U67C U72C, for which the self-cleavage is 0.36.

On to U25C G55A G63A, for which the self-cleavage was 0.23.

U25C G30U U43A A56G U72A: the self-cleavage was found to be 0.05.

Take U25C U43C A64G: the self-cleavage stood at 0.29.

As to U25C G36C A45G U51C U58C U60C, the self-cleavage was found to be 0.08.

For the variant U25C U31C U43A U69A, the self-cleavage was 0.21.

Regarding U25C G53A A65G U74C U78C U80C, the self-cleavage worked out at 0.53.

U25C U31G U66G: the self-cleavage was found to be 0.17.
